Patent US6800434B2, “Peptides as NS3-serine protease inhibitors of hepatitis C virus” (priority 2000, dated 2004)
Starred links: 1 amine or outer side, 2 acyl side, 3 side chain; linkers in the order of their positions; H or OH if unused. Non-standard residues stand in square brackets, D forms with d. Residues, ends and D or L forms follow the SMILES beside them. ξ: configuration not given here. *: point of attachment. X9 = O=C(N[C@@H]1C[C@@H](C(=O)[*:2])N([*:1])C1)c1ccc2c(c1)OCO2; X28 = O=C([C@@H]1C[C@@H](NS(=O)(=O)c2ccccc2)CN1[*:1])[*:2]; Ala(SO2Me) = CS(=O)(=O)C[C@H](N)C(=O)O; X31 = C#CC[C@H](N[*:1])C(=O)C(=O)[*:2]; Tiq1c(1S) = O=C(O)[C@H]1NCCc2ccccc21; X1 = CCC[C@H](N[*:1])C(=O)C(=O)[*:2]; X13 = O=C(C(=O)[*:2])C1(N[*:1])CCCC1; Hyp = O=C(O)[C@@H]1C[C@@H](O)CN1; X3 = CCCC(N[*:1])C(=O)C(=O)[*:2]; Ile(3ξ) = CCC(C)[C@H](N)C(=O)O; Chg = N[CH](C(=O)O)C1CCCCC1; hLeu = CC(C)CC[C@H](N)C(=O)O; Pip = O=C(O)[C@@H]1CCCCN1; Aze = O=C(O)[C@@H]1CCN1; NH(propargyl) = C#CCN*; GABA = NCCCC(=O)O; OtBu = CC(C)(C)O*; NHAllyl = C=CCN*; tBu = CC(C)(C)*; OAll = C=CCO*

The compounds below were run against Recombinant heterodimeric HCV NS3/NS4A protease (strain 1a) (Hepatitis C virus genotype 1a, UniProt P27958) (assay: biochemical). Conditions: Ki* Range.
Compound `C#CC[C@H](NC(=O)[C@@H]1CCCN1C(=O)[C@@H](NC(=O)[C@@H](NC(=O)[C@H](CCC(=O)O)NC(=O)[C@H](CCC(=O)O)NC(C)=O)C(C)C)C(C)C)C(=O)C(=O)NCC(=O)OCC=C` [Ac-EEVVP-G(propynyl)-(CO)-G-Oallyl] (Ac-EEVVP[X31]G-OAll) has a Ki of 0.101 to 0.999 µM. `CCC[C@H](NC(=O)[C@@H]1CCCN1C(=O)[C@@H](NC(=O)[C@@H](NC(=O)[C@H](CCC(=O)O)NC(=O)[C@H](CCC(=O)O)NC(C)=O)C(C)C)C(C)CC)C(=O)C(=O)NCC(=O)O` (some centres unmarked) [Ac-EEVIP-nV-(CO)-G-OH] (Ac-EEV[Ile(3ξ)]P[X1]G-OH) was tested, and the Ki was 0.001 to 0.1 µM. For `CCC[C@H](NC(=O)CN(CCCCC(N)C(=O)O)C(=O)[C@@H](NC(=O)[C@@H](NC(=O)[C@H](CCC(=O)O)NC(=O)[C@H](CCC(=O)O)NC(C)=O)C(C)C)C(C)C)C(=O)C(=O)NCC(=O)O` (some centres unmarked) [Ac-EEVV-G(N-Pe(5-NH2,5-CO2H))-nV-(CO)-G-OH], the Ki was 0.001 to 0.1 µM. Work on `CCCC(NC(=O)[C@@H]1CCCCN1C(=O)[C@@H](NC(=O)[C@@H](NC(=O)[C@H](CCC(=O)OC(C)(C)C)NC(=O)[C@H](CCC(=O)OC(C)(C)C)NC(C)=O)C(C)C)C1CCCCC1)C(=O)C(=O)NCC(=O)O` (some centres unmarked) [Compound 80] (Ac-E(OtBu)E(OtBu)V[Chg][Pip][X3]G-OH) yielded a Ki of 0.001 to 0.1 µM. With `CCC[C@H](NC(=O)[C@@H]1CCCN1C(=O)[C@@H](NC(=O)[C@@H](NC(=O)[C@H](CCC(=O)OC(C)(C)C)NC(=O)[C@H](CCC(=O)OC(C)(C)C)NC(C)=O)C(C)C)C(C)C)C(=O)C(=O)N[C@@H](COC(C)(C)C)C(=O)OC` [Compound 30] (Ac-E(OtBu)E(OtBu)VVP[X1]S(tBu)-OMe) the Ki was 1 to 10 µM. In the case of `CCC[C@H](NC(=O)[C@@H]1C[C@@H](NC(=O)c2ccc3c(c2)OCO3)CN1C(=O)[C@@H](NC(=O)[C@@H](NC(=O)[C@H](CCC(=O)O)NC(=O)[C@H](CCC(=O)O)NC(C)=O)C(C)C)C(C)C)C(=O)C(=O)NCC(=O)O` [Ac-EEVV-P(4t-NHBzl)3,4-OMeO))-nV-(CO)-G-OH] (Ac-EEVV[X9][X1]G-OH), the Ki is reported as 0.001 to 0.1 µM. Work on `C=CCNC(=O)C(=O)C(CCC)NC(=O)[C@@H]1CCCN1C(=O)[C@H](CCC(C)C)NC(=O)[C@@H](NC(=O)[C@H](CCC(=O)O)NC(=O)[C@H](CCC(=O)O)NC(C)=O)C(C)C` (some centres unmarked) [Compound 67] (Ac-EEV[hLeu]P[X3]-NHAllyl) yielded a Ki of 0.101 to 0.999 µM. With `C=CCNC(=O)C(=O)C(CCC)NC(=O)C1CCCN1C(=O)C(NC(=O)C(NC(=O)C(CCC(=O)O)NC(=O)C(CCC(=O)O)NC(C)=O)C(C)C)C1CCCCC1` (centres unmarked) [Compound 38] (Ac-EEV[Chg]P[X3]-NHAllyl; configuration not given here) the Ki was 0.001 to 0.1 µM. Compound `CCC[C@H](NC(=O)[C@@H]1C[C@@H](NS(=O)(=O)c2ccccc2)CN1C(=O)[C@@H](NC(=O)[C@@H](NC(=O)[C@H](CCC(=O)O)NC(=O)[C@H](CCC(=O)O)NC(C)=O)C(C)C)C(C)C)C(=O)C(=O)NCC(=O)O` [Ac-EEVV-P(4t-NHSO2Ph)-nV-(CO)-G-OH] (Ac-EEVV[X28][X1]G-OH) has a Ki of 0.001 to 0.1 µM. With `C=CCOC(=O)CNC(=O)C(=O)C(CCC)NC(=O)[C@@H]1C[C@@H](OC(C)(C)C)CN1C(=O)[C@@H](NC(=O)[C@@H](NC(=O)[C@H](CCC(=O)OC(C)(C)C)NC(=O)[C@H](CCC(=O)OC(C)(C)C)NC(C)=O)C(C)C)C(C)C` (some centres unmarked) [Compound 40] (Ac-E(OtBu)E(OtBu)VV[Hyp](tBu)[X3]G-OAll) the Ki was 0.001 to 0.1 µM. `C=CCNC(=O)C(=O)C(CCC)NC(=O)[C@@H]1CCN1C(=O)[C@@H](NC(=O)[C@@H](NC(=O)[C@H](CCC(=O)O)NC(=O)[C@H](CCC(=O)O)NC(C)=O)C(C)C)C(C)C` (some centres unmarked) [Compound 33] (Ac-EEVV[Aze][X3]-NHAllyl) showed a Ki of 0.101 to 0.999 µM. For `CCC[C@H](NC(=O)[C@@H]1CCCN1C(=O)[C@@H](NC(=O)[C@@H](NC(=O)[C@H](CCC(=O)OC(C)(C)C)NC(=O)[C@H](CCC(=O)OC(C)(C)C)NC(C)=O)C(C)C)C(C)C)C(=O)C(=O)NCCCC(=O)O` [Compound 19] (Ac-E(OtBu)E(OtBu)VVP[X1][GABA]-OH), the Ki was 1 to 10 µM. `CCC[C@H](NC(=O)[C@H](CS(C)(=O)=O)NC(=O)[C@@H](NC(=O)[C@@H](NC(=O)[C@H](CCC(=O)O)NC(=O)[C@H](CCC(=O)O)NC(C)=O)C(C)C)C(C)C)C(=O)C(=O)NCC(=O)O` [Ac-EEVV-C(O2,Me)-nV-(CO)-G-OH] (Ac-EEVV[Ala(SO2Me)][X1]G-OH) showed a Ki of 0.001 to 0.1 µM. Compound `C=CCOC(=O)CNC(=O)C(=O)C(CCC)NC(=O)[C@@H]1c2ccccc2CCN1C(=O)[C@@H](NC(=O)[C@@H](NC(=O)[C@H](CCC(=O)O)NC(=O)[C@H](CCC(=O)O)NC(C)=O)C(C)C)C1CCCCC1` (stereo partly drawn) [Compound 71] (Ac-EEV[Chg][Tiq1c(1S)][X3]G-OAll) has a Ki of 0.101 to 0.999 µM. `C#CCNC(=O)C(=O)[C@H](CCC)NC(=O)[C@@H]1CCCN1C(=O)[C@@H](NC(=O)[C@@H](NC(=O)[C@H](CCC(=O)O)NC(=O)[C@H](CCC(=O)O)NC(C)=O)C(C)C)C(C)C` [Compound 12] (Ac-EEVVP[X1]-{NH(propargyl)}) gave a Ki of 0.101 to 0.999 µM. `C=CCOC(=O)CNC(=O)C(=O)C1(NC(=O)[C@@H]2CCCN2C(=O)[C@@H](NC(=O)[C@@H](NC(=O)[C@H](CCC(=O)O)NC(=O)[C@H](CCC(=O)O)NC(C)=O)C(C)C)C(C)C)CCCC1` [Compound 3] (Ac-EEVVP[X13]G-OAll) was tested, and the Ki was 1 to 10 µM. `CCC[C@H](NC(=O)[C@@H]1CCCN1C(=O)[C@@H](NC(=O)[C@@H](NC(=O)[C@H](CCC(=O)O)NC(=O)[C@H](CCC(=O)O)NC(C)=O)C(C)C)C(C)C)C(=O)C(=O)N[C@@H](CO)C(=O)OC` [Compound 29] (Ac-EEVVP[X1]S-OMe) showed a Ki of 1 to 10 µM.
